# The full ranking holds about 33,000 sequences; the median of “E-score (-0.5 to 0.5)” is about -0.035, and the highest 2% start at about 0.34. This is one part of the list.
# Biological target: T1, Mot3 (UniProt P54785)
# T1 sequence: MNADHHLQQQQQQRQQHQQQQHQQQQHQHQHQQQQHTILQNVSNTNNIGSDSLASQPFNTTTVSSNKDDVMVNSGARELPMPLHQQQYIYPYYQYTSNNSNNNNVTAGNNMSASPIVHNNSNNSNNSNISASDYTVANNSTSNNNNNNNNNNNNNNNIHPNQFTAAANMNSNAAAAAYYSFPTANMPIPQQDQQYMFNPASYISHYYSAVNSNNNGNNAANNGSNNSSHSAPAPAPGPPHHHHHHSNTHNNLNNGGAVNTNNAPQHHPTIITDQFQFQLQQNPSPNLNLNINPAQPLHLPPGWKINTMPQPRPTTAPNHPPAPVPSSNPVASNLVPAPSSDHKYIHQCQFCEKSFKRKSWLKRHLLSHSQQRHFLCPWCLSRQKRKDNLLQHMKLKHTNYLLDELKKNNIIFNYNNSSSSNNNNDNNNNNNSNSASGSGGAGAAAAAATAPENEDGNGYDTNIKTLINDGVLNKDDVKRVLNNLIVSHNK
# Assay: PBM E-score (8-mer binding enrichment) (E-score (-0.5 to 0.5)); higher = stronger / more preferred TF binding; most listed sequences are background and not binding sites
# Conditions: protein concentration: 200 nM; construct: GST-full length
# Summary of the method: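 The E-score, a modified Wilcoxon-Mann-Whitney statistic, was computed by the Universal PBM Analysis Suite for every ungapped eight-base word pooled with its reverse complement. Scans behind it were normalised with masliner after bound GST-tagged yeast transcription factors were detected with fluorescent anti-GST. The proteins, at about 100-200 nM, had been applied to universal all-10-mer Agilent arrays made double-stranded by primer extension.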
row,Sequence,PBM E-score
1,TGTGGAAA,0.129
2,ATCTTTTC,0.0767
3,AACTATTC,0.015
4,ACATAGCC,0.186
5,AGAGAACA,0.157
6,CCCTATTC,-0.216
7,AGGAGCCG,-0.296
8,CCCGCTGA,-0.264
9,ATTCCCGC,-0.131
10,CCTTGGCA,-0.184
11,GTATCAAA,0.0303
12,CACATTCC,0.0272
13,CCCATAGG,-0.0217
14,CTGGCCAA,-0.0769
15,CGGCTATC,-0.341
16,AAGGGGCC,-0.0871
17,ACGGTTGC,0.024
18,GTTATCGA,-0.104
19,ATGCGCGC,-0.0271
20,ACTTAAAA,0.0954
21,CAAGCGTA,0.00011
22,CACCTCGC,-0.249
23,AGTTATTG,0.029
24,ACGGGAGT,-0.168
25,CTTAACAC,0.333

row,Sequence,PBM E-score
1,CCCTGCAA,0.00233
2,AAGCCCTA,0.116
3,GCTCAAGC,-0.308
4,AAAAATAA,0.109
5,TTAAGAAA,0.14
6,AGAAAATA,-0.0363
7,CACGTGGG,-0.0188
8,CCCGGTCC,-0.254
9,GGCCCATA,-0.108
10,AAGCTTGC,-0.0575
11,GGACGCTA,-0.206
12,ACCGCGAC,-0.0532
13,CCGTAGAA,0.0555
14,ACAGCGAC,-0.225
15,CGGCAGTA,-0.11
16,AGGTAGAG,-0.0271
17,ATTCCCGG,-0.0185
18,AGAGAACC,-0.214
19,ACTTGGGC,-0.154
20,CCTAAGAG,-0.00156
21,TGGCCCCA,-0.246
22,GATAGAAA,-0.091
23,TCCCAGGA,-0.202
24,CTAGATAG,0.0526
25,ATACGGAA,-0.0423

row,Sequence,PBM E-score
1,ACCTGCCT,0.226
2,CCGATCGA,-0.221
3,AGTCACGC,0.216
4,AAATCTTC,-0.0135
5,GAATTCCA,-0.166
6,TACTACCA,-0.0954
7,CAAAGATA,-0.0691
8,ATCGGATC,-0.134
9,CAATCCAA,0.0375
10,AGGCGTTA,0.0946
11,ACGTGTAC,0.343
12,AGTATAAT,0.00295
13,CTCGCCGA,-0.259
14,GCATATCC,-0.113
15,CGTCCAGA,-0.345
16,GAAGCACC,-0.13
17,ATCTTGCA,0.0843
18,CCGGACAC,-0.163
19,CCGTGCAG,-0.0427
20,GACTACTC,0.0874
21,CATAATAA,0.145
22,AATTGCGT,0.194
23,ACTCTCAC,-0.181
24,AGATACTG,-0.00245
25,AAATGTGA,0.117

row,Sequence,PBM E-score
1,AGCGCTCA,-0.252
2,CCTTGTCA,0.179
3,AATGACGA,0.119
4,AATATTGC,0.107
5,CACACAGC,0.224
6,CCTGAATA,0.121
7,ATATGTAC,0.274
8,CGCGCACC,-0.0408
9,AGAGCAGA,-0.0286
10,GAACGCGA,0.153
11,CGAATTCG,-0.137
12,CAGAGGCA,0.299
13,AGACGGAT,-0.0845
14,ATAGAAAA,0.0494
15,AAGCCGCT,-0.228
16,ACCGTATA,-0.0379
17,GCCAAGGC,0.0656
18,CTAAAAAG,0.0983
19,CAGTGTCG,0.0411
20,AGATCGAC,-0.151
21,TCCACACA,0.0338
22,AAATTCGA,0.0174
23,GGCATTGA,-0.0931
24,ATGCACTG,-0.0118
25,AATATTTA,0.122

row,Sequence,PBM E-score
1,CACGATAG,0.0203
2,AGTTACAG,0.0836
3,ACACGGTC,0.349
4,AGCGGAAT,-0.148
5,CGAACGCC,-0.101
6,GATCATTA,0.103
7,GCAGTCAA,-0.202
8,AGCTGGGC,-0.224
9,CCAAATGA,0.0561
10,GTCGTAAA,0.213
11,AAAGTGTG,0.0664
12,AAAACTCC,-0.12
13,CCAACACC,-0.148
14,CACTACTC,-0.0087
15,ACCAAAGA,0.108
16,TAGCAATA,-0.00501
17,ATTGGGAG,-0.145
18,CGTATAGC,-0.0266
19,AGAACAAT,0.25
20,CCGGGACC,-0.322
21,AAGACCAT,-0.234
22,GAAGGGAC,-0.241
23,ATGTTTCA,0.0505
24,CCTATAGA,0.191
25,CCCCGAAG,-0.083

row,Sequence,PBM E-score
1,AAGCTGAT,0.0408
2,GAGATCAA,0.0475
3,CGTATATA,0.163
4,CTCACAAG,-0.0197
5,AATTTTCG,0.0714
6,AGGACAAG,-0.0114
7,GGCTACAC,0.19
8,ACAAGTAC,0.248
9,CACAGCAC,0.2
10,GACAGGTA,0.25
11,AGGGAGAG,-0.228
12,AAAGACGA,-0.0386
13,GGATCGCC,-0.0978
14,GGATCAAA,-0.025
15,CATTGAGG,-0.135
16,AGCACTAA,-0.138
17,AGGTAGGC,0.0978
18,CACGTCGA,0.144
19,CCTTGGTA,0.239
20,ATCCATGG,-0.163
21,CTAAATCC,-0.219
22,GCTTGTAA,0.318
23,AGTTCTCC,-0.261
24,AACGCTAA,-0.0213
25,CTTTGGTC,0.0136

row,Sequence,PBM E-score
1,CGGGATTC,-0.155
2,ATGCATTG,0.00346
3,AGGGGCCG,-0.245
4,CTCCTAAG,-0.0118
5,GGGTGATA,-0.292
6,CCGATAAA,-0.181
7,CACAGACA,0.141
8,AACAGGTC,0.0905
9,ATGAAAAC,0.148
10,TGACAGAA,0.0993
11,ACTACACA,0.331
12,CAGATGGA,-0.102
13,CGCGATAA,0.0448
14,AGAGTCCG,-0.163
15,AGAGTTCC,-0.135
16,ACCTTGTC,-0.0136
17,ACTCCGTG,-0.136
18,GATATACA,0.229
19,GACCATCC,-0.292
20,CGAGGTCC,-0.25
21,AAACCTCT,-0.128
22,ATTCCATG,0.0576
